Measurements published in PubChem BioAssay AID624417 (National Center for Advancing Translational Sciences (NCATS), 2012).
The whole screen tested about 410,000 compounds, of which about 6,400 (1.6%) were called active. The inconclusive results got no clear call from the source; some entries with a clear call stand among them for comparison. The call rests on the fitted dose curve; in most records, active means well fitted inhibition curve with a large enough effect; inconclusive means small, poorly fitted or top-dose-only effect; inactive means no such curve, though single readings can be large or run the other way. No potency is given beside an inconclusive call; the fits are too rough.

The compounds below were run against Glucagon-like peptide 1 receptor (Homo sapiens) (UniProt P43220) (assay: qHTS of GLP-1 Receptor Inverse Agonists (Inhibition Mode)). Details: HEK293 GLP-1R CRE-luciferase, luminescence, 24 h, GLP-1R form is constitutively active; activity change, negative = inhibition: at 38.3 µM (top of the series) unless noted.
Procedure, shortened: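 Cells are plated, allowed 12 hours at 37 deg C, then treated with compounds for 24 hr before luciferase detection reagent is added and luminescence is read after 12 min at room temperature. The HEK293 line carries constitutively active GLP-1R with a cAMP-responsive reporter.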
Further: nearly all actives have a fitted effect of over 55% in size.
On the % scale 0 is the no-effect control and ±100 the full control effect; potency means the concentration at half of the fitted maximal effect; tags describe the fitted curve by direction and shape.

Chain of UniProt P43220 (P43220 whole entry, looked up): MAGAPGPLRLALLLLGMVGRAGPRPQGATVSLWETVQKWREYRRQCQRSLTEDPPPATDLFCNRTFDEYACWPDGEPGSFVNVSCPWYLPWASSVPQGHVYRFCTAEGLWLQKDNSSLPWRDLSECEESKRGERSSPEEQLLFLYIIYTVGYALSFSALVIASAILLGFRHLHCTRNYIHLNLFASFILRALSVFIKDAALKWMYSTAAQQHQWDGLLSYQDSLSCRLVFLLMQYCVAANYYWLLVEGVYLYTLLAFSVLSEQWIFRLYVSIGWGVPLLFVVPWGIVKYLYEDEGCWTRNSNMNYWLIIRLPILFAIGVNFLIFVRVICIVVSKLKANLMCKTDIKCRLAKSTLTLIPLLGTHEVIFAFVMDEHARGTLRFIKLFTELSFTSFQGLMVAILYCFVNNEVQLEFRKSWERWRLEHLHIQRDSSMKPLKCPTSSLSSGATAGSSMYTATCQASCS

For `Cc1cccc(CN2CCc3c(OCC(=O)NCc4ccco4)cccc3C2=O)c1`, which Potency is on record?
The Potency was inconclusive [inhibitor, single point].

For `CC1Cc2ccccc2N1C(=O)c1cc2sccc2n1Cc1ccccc1` (stereo not drawn), which Potency is on record?
The Potency was inconclusive [inhibitor, single point].

Which “activity change, negative = inhibition” value does the source give for `Cc1ccc(C)c(S(=O)(=O)Nc2ccc(S(=O)(=O)Nc3onc(C)c3C)cc2)c1` here?
The value was inactive: 15%.

Which Potency does the source give for `O=C(NCc1ccco1)c1cccc2c1C(=O)c1ccc(/C=C/c3ccccc3)cc1S2(=O)=O` here?
The Potency was inconclusive [inhibitor, partial curve, poor fit].

Which Potency does the source give for `CCOc1ccccc1NC(=O)c1cc(S(=O)(=O)NC2CCCC2)ccc1F` here?
The Potency was active: 6.31 µM.

`CC(C)(C)CNC(=O)C1(C)CCN1C(=O)Cc1ccc(-c2ccccc2)cc1` (stereo not drawn) was tested. Which Potency did it give?
The Potency was inconclusive [inhibitor, single point].

For `Cc1ccc(C(=O)Nc2ccc3oc(-c4cccnc4)nc3c2)c(Cl)c1`, which “activity change, negative = inhibition” value is on record?
Its value is inactive: -16.4%.

How did the Potency turn out when `COc1ccc(-n2nnnc2/C=C\Nc2ccccc2C(=O)c2ccccc2)cc1` was run?
Its Potency is inconclusive [inhibitor, full curve, poor fit].

With `COc1cccc(-c2cnc(NCc3ccccc3Cl)n2C)c1` as the compound, how does the Potency read?
The Potency was inconclusive [inhibitor, single point].

For `COc1cc(/C=C/C(=O)OCC(=O)Nc2ccc3c(c2)OCCO3)ccc1O`, which “activity change, negative = inhibition” value is on record?
Its value is inactive: -22.6%.

With `O=C(NCC1CCCO1)c1cccc(S(=O)(=O)Nc2ccc(F)cc2)c1` (stereo not drawn) as the compound, how does the Potency read?
The Potency was inconclusive [inhibitor, single point].

For `CN(C)S(=O)(=O)c1cccc(NC(=O)c2sccc2-c2ccccc2)c1`, which Potency is on record?
The Potency was inconclusive [inhibitor, single point].

`Cc1ccccc1CN1C(=O)CSCC1(C)C(=O)Nc1c(C)cccc1C` (stereo not drawn) was tested. Which “activity change, negative = inhibition” value did it give?
The value was inactive: 8.92%.

`O=C(Oc1ccc(F)cc1)c1nc(SCc2ccc(F)cc2)ncc1Cl` was tested. Which “activity change, negative = inhibition” value did it give?
Its value is inactive: -3.25%.

Which Potency does the source give for `COc1ccccc1CNC(=O)c1cc2sccc2n1C` here?
Its Potency is inconclusive [inhibitor, single point].

How did the “activity change, negative = inhibition” value turn out when `CCCCN(Cc1cc2ccccc2[nH]c1=O)C(=O)c1cccc(Cl)c1` was run?
The value was inactive: 3.12%.

With `CCN(CC)S(=O)(=O)c1cc(OC)c(Cl)cc1OC` as the compound, how does the Potency read?
The Potency was inconclusive [inhibitor, partial curve, poor fit].

`O=C(NCc1cccnc1)c1cc(Sc2cccc(Cl)c2)nc2ccccc12` was tested. Which Potency did it give?
Its Potency is inconclusive [inhibitor, single point].

How did the Potency turn out when `O=C(Nc1ccc(Nc2ccccc2)cc1)c1ccc(F)cc1` was run?
The Potency was inconclusive [inhibitor, partial curve, poor fit].

How did the Potency turn out when `CSc1ccccc1OCc1cc(C(=O)N(C)Cc2ccc3nsnc3c2)no1` was run?
The Potency was inconclusive [inhibitor, single point].

For `CCOc1ccccc1C(=O)Nc1ccccc1O`, which Potency is on record?
The Potency was inconclusive [inhibitor, single point].

Which Potency does the source give for `CCOc1ccc(S(=O)(=O)N2CCCC(C(=O)NCC3CCCO3)C2)cc1Cl` (stereo not drawn) here?
The Potency was inconclusive [inhibitor, single point].

For `Cc1ccc(-c2noc(-c3ccccc3NC(=O)C3CC(=O)N(c4ccc(C)cc4)C3)n2)cc1` (stereo not drawn), which “activity change, negative = inhibition” value is on record?
The value was inactive: 11.8%.

With `Cc1ccc(CNC(=O)[C@]2(C)CCC[C@@]3(C)C4CC[C@@]5(C)C[C@]4(CCC32)CC5=O)cc1` (stereo partly drawn) as the compound, how does the Potency read?
The Potency was inconclusive [inhibitor, partial curve, poor fit].

`Cc1ccc(C(=O)NCC(c2ccco2)S(=O)(=O)c2cccs2)cc1C` (stereo not drawn) was tested. Which “activity change, negative = inhibition” value did it give?
The value was inactive: -27.4%.

Which Potency does the source give for `CCCCC(O)(c1ccccc1)C(CN1CCOCC1)c1ccccc1` (stereo not drawn) here?
The Potency was active: 10 µM.

Which Potency does the source give for `COc1cc2nc(Nc3cccc(C)c3)nc(N)c2cc1OC` here?
The Potency was inconclusive [inhibitor, single point].

With `CCC(C)Sc1nc2c(c(=O)[nH]c(=O)n2C)n1CC(O)COc1ccccc1C` (stereo not drawn) as the compound, how does the Potency read?
Its Potency is inconclusive [inhibitor, partial curve, poor fit].

For `Cc1ccc2nc(-c3ccccc3)cc(C(=O)NCC(c3ccco3)N(C)C)c2c1` (stereo not drawn), which Potency is on record?
The Potency was inconclusive [inhibitor, partial curve, poor fit].

`CCOc1ccc(C(=O)NCCc2ccccc2)cc1` was tested. Which Potency did it give?
Its Potency is inconclusive [inhibitor, partial curve, poor fit].

How did the Potency turn out when `CCNC(=S)Nc1scc(-c2ccccc2)c1C(=O)OCC` was run?
Its Potency is inconclusive [inhibitor, single point].

Which Potency does the source give for `CN(C)c1ccc(-c2nc(-c3cccs3)c(-c3cccs3)[nH]2)cc1` here?
Its Potency is inconclusive [inhibitor, partial curve, poor fit].

With `CN1CCN(CCCN2c3ccccc3Sc3ccc(S(=O)(=O)N(C)C)cc32)CC1` as the compound, how does the Potency read?
Its Potency is inconclusive [inhibitor, partial curve, poor fit].

With `O=C(Nc1ccc2c(c1)OCO2)c1cc(C2CCCN(C(=O)C3CCCCC3)C2)on1` (stereo not drawn) as the compound, how does the Potency read?
Its Potency is inconclusive [inhibitor, single point].

`C[n+]1c(-c2ccccc2)cc2c(=Cc3ccc([N+](=O)[O-])cc3)c3ccccc3n21` was tested. Which Potency did it give?
The Potency was inconclusive [inhibitor, full curve, poor fit].

For `CCCOc1ccc(NC(=O)OC2CCN(C)CC2)cc1`, which Potency is on record?
Its Potency is inconclusive [inhibitor, partial curve, poor fit].

For `O=C(NCCc1ccc(Cl)cc1)c1ccc2c(c1)N(Cc1ccc(F)cc1)C(=O)CS2`, which Potency is on record?
The Potency was inconclusive [inhibitor, partial curve, poor fit].

Which Potency does the source give for `CCOc1cc(/C=C2\C(=O)NN(c3ccccc3)C2=O)cc([N+](=O)[O-])c1O` here?
The Potency was inconclusive [inhibitor, full curve, poor fit].

Which Potency does the source give for `OCOCCCn1c(C2CCCN2c2nc(-c3ccc(F)cc3)cs2)nc2cc(Cl)c(N3CCCCC3)cc21` (stereo not drawn) here?
Its Potency is active: 7.94 µM.

With `O=S(=O)(c1ccc(NC(=S)NCCC(c2ccccc2)c2ccccc2)cc1)N1CCOCC1` as the compound, how does the Potency read?
The Potency was inconclusive [inhibitor, partial curve, poor fit].

How did the Potency turn out when `COC(=O)c1ccc(NS(=O)(=O)c2ccc3[nH]c4c(c3c2)CCCC4)cc1` was run?
The Potency was inconclusive [inhibitor, partial curve, poor fit].

`COc1cccc(-n2nnnc2S(C)(=O)=O)c1` was tested. Which Potency did it give?
Its Potency is inconclusive [inhibitor, single point].

Which Potency does the source give for `CCc1ccc2[nH]c(=O)c(CN(CCCN3CCOCC3)C(=O)Nc3ccccc3)cc2c1` here?
The Potency was inconclusive [inhibitor, single point].

`Cc1ccc(N2C(=O)C3C(C(=O)c4ccccc4)=NN(c4ccccc4)C3C2=O)cc1` (stereo not drawn) was tested. Which “activity change, negative = inhibition” value did it give?
The value was inactive: 1.31%.

How did the Potency turn out when `COc1ccc(NC(=O)c2ccccc2Oc2ccccc2)cc1` was run?
Its Potency is inconclusive [inhibitor, single point].

`O=C1C2=C(C(c3ccccc3)=NCCN2)C(c2cccc([N+](=O)[O-])c2)N1c1ccccc1` (stereo not drawn) was tested. Which Potency did it give?
Its Potency is inconclusive [inhibitor, single point].

`COc1cc(CN2CCCC(N3CCc4ccccc4C3)C2)c(Cl)cc1O` (stereo not drawn) was tested. Which Potency did it give?
Its Potency is inconclusive [inhibitor, single point].

With `COc1cc(NC(=O)CN2C(=O)C(=O)N(CC(C)C)C2=O)cc(OC)c1` as the compound, how does the “activity change, negative = inhibition” value read?
The value was inactive: 7.53%.

With `O=C(O)C1=CCC(c2ccc(Cl)c(Cl)c2)N(S(=O)(=O)c2ccc(F)cc2)C1c1cccc(F)c1` (stereo not drawn) as the compound, how does the Potency read?
The Potency was inconclusive [inhibitor, partial curve, poor fit].

Which Potency does the source give for `COc1ccc(Cl)cc1NC(=O)CN(C)C(=O)c1cn2ccccc2n1` here?
The Potency was inconclusive [inhibitor, partial curve].

Which Potency does the source give for `CNC(=S)N(CCc1c(C)[nH]c2ccc(F)cc12)Cc1ccco1` here?
The Potency was inconclusive [inhibitor, partial curve, poor fit].

How did the activity change, negative = inhibition turn out when `S=C(N/N=C/c1ccco1)NC1CC2CCC1C2` (stereo not drawn) was run?
Its activity change, negative = inhibition is inconclusive: -86.6% [inhibitor].

Which Potency does the source give for `COc1ccccc1CCC(=O)Nc1cccc(S(=O)(=O)N2CCCCCC2)c1` here?
The Potency was inconclusive [inhibitor, partial curve, poor fit].

For `COc1cc(OC)cc(C(=O)Nn2cc(C(=O)Nc3ccc(F)cc3F)c3ccccc3c2=O)c1`, which Potency is on record?
The Potency was inconclusive [inhibitor, partial curve, poor fit].

How did the “activity change, negative = inhibition” value turn out when `CCOc1ccc(-c2cc(NC(=O)Nc3ccc(Cl)cc3)c(C(=O)OC)s2)cc1` was run?
Its value is inactive: 12.5%.

With `CCOC(=O)Cn1cnc2scc(-c3ccc(C)c(C)c3)c2c1=O` as the compound, how does the Potency read?
Its Potency is inconclusive [inhibitor, partial curve, poor fit].

`CCCC(=O)NC(c1ccc(OC)cc1)c1c(O)ccc2ccccc12` (stereo not drawn) was tested. Which Potency did it give?
The Potency was inconclusive [inhibitor, full curve, poor fit].

For `Nc1nonc1C(=O)NCCN=Cc1cc(Cc2ccccc2)cc(Br)c1O`, which Potency is on record?
Its Potency is inconclusive [inhibitor, partial curve, poor fit].

For `CCc1c(-c2ccccc2)ncn1Cc1cccc(-c2ccccc2)c1`, which Potency is on record?
The Potency was inconclusive [inhibitor, single point].

For `O=C(Nc1ccc(C(=O)N2CCN(c3ccccc3F)CC2)cc1)C1=CSCCO1`, which Potency is on record?
Its Potency is inconclusive [inhibitor, partial curve, poor fit].

With `CCN1CCSc2ccc(C(=O)NCc3cc(Br)ccc3OC)cc21` as the compound, how does the Potency read?
Its Potency is inconclusive [inhibitor, partial curve, poor fit].

`CC(=O)Nc1c(S(=O)(=O)c2ccccc2)c2nc3ccccc3nc2n1Cc1ccccc1` was tested. Which “activity change, negative = inhibition” value did it give?
The value was inactive: -8.75%.

How did the Potency turn out when `CN(C)c1ccc2c(c1)OC(N)=C(C#N)C2c1cccc(F)c1` (stereo not drawn) was run?
The Potency was inconclusive [inhibitor, full curve, poor fit].
